Nonsense suppression data for 167 variants are collected here from the RNAGym collection of RNA variant scans (doi:10.1101/gad.245936.114).

Variants at the background level are over-represented here.

B1: tRNA (parent)
chain: CUCUCGGUAGCCAAGUUGGUUUAAGGCGCAAGACUUUAAUUUAUCACUACGAAAUCUUGAGAUCGGGCGUUCGACUCGCCCCCGGGAGAUUUUUUCCUCGAGCAA

This data set covers variants of B1. In words: nonsense suppression (GFP-seq) (ratio to wild type); higher = more function; SUP4oc tRNA, yeast GFP reporter sort-seq. Summed up:
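Yeast were grown in raffinose/galactose medium with 80 mg/L adenine, each strain bearing a genome-integrated ochre-suppressor tRNA variant from a ~3% random-mutation library, a galactose-driven GFP ochre reporter, and RFP. After sorting into GFP/RFP bins, every bin was sequenced on an Illumina platform at phred ≥30. The GFPSEQ value, a measure of nonsense suppression, is the weighted bin median GFP/RFP relative to the unmutated parent tRNA, using each variant's estimated cell share per bin as the weight. Only variants with ≥100 reads and ≥30 cells were included.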
Regarding A33G C82U, the nonsense suppression was at most 0.026.
The result for G25U A89C reads at most 0.026.
Under C1G U22G A30U G59A stands at most 0.026; under G7A G73C, at most 0.026; under G18A A60U, at most 0.026.
The result for C11G A13U A54G A62C C68A reads at most 0.026; that for G7U C11A G15U A24G G86C, at most 0.026; that for A24U U35A G88C, at most 0.026.
As for C1G C81G A87G, the nonsense suppression was at most 0.026.
Under C11U U76C G88U stands at most 0.026; under U17C U20G C27U G59C, at most 0.026; under A9C C34G, at most 0.026.
The result for C12A A23C U35A U57C reads at most 0.026.
The result for A24U G61C G78C reads at most 0.026; that for C56A G69A, at most 0.026; that for A13U C34U C83U, at most 0.026.
A14G G25A G67U: the nonsense suppression was at most 0.026.
Under A13U A14U A60C stands at most 0.026; under G10U G26U A33G U58A A62C G65A C72A, at most 0.026; under C1U A23G U63A, at most 0.026.
Under U58A C80A stands at most 0.026; under A24G C29A G86C, at most 0.026.
The result for C27U A54U U58A reads at most 0.026; that for G6U G32C G86A, at most 0.026.
On to C11G G61A, for which the nonsense suppression is at most 0.026.
Under U17C C68A C82U stands at most 0.026.
As for A24U A62G C82U, the nonsense suppression was at most 0.026.
For the variant G15A C27U U63G A89C, the nonsense suppression is at most 0.026.
In the case of C34G A60U, the nonsense suppression was at most 0.026.
Under C56G U71C stands at most 0.026.
Take U57G C68U U70C: the nonsense suppression was at most 0.026.
The result for C29U U35G U76C reads at most 0.026; that for A31U C64U C72U, at most 0.026.
Under G26C C68G stands at most 0.026; under G18U A24G C68U U76C, at most 0.026.
The result for C3A A9U A13C G66C U71A reads at most 0.026.
As for C75A G86U, the nonsense suppression is at most 0.026.
In the case of A9C C72G G78U, the nonsense suppression was at most 0.026.
The result for A9C G32C G88U reads at most 0.026; that for U16C C81G, at most 0.026.
The result for G15A A23C reads at most 0.026.
Under G67U G88A stands at most 0.026; under A31G G69C G84C A87C, at most 0.026; under U71A G88U, at most 0.026.
For the variant U8A G10U U22C, the nonsense suppression was at most 0.026.
Under A23C U71G stands at most 0.026; under C5U G65C G88U, at most 0.026; under G26U C56G A62U, at most 0.026.
For G10A U22C, the nonsense suppression was at most 0.026.
As for U4A A24G G66C C68U, the nonsense suppression is at most 0.026.
The result for G25U G32C A54G C77U reads at most 0.026.
Under G7U U8G G67U C68A U76G stands at most 0.026; under A54U G84U, 0.0565; under C12U C80A, at most 0.026.
Take U16G G69U: the nonsense suppression was at most 0.026.
For the variant A30G U70C, the nonsense suppression was at most 0.026.
Under G6A G28C G32A A60G stands at most 0.026.
Under C34G G84U stands at most 0.026.
The result for U22C A31G U35A U57A C77A reads at most 0.026.
On to U20G U55C A74G, for which the nonsense suppression was at most 0.026.
Take U58G C64G C83A: the nonsense suppression is at most 0.026.
Under G59C G61U G73U stands at most 0.026.
Under C1U A30C stands at most 0.026; under A9C A30G C64G G69U, at most 0.026; under G26U C83A, at most 0.026.
Consider C81A A87C, for which the nonsense suppression was at most 0.026.
For the variant C29G C34A A60C, the nonsense suppression was at most 0.026.
In the case of C12U A24U G67C, the nonsense suppression is at most 0.026.
Under A13U C27U stands 0.209.
Under G6C A13C U17C G73C C83U stands at most 0.026; under U4G, 1.16.
With U8C G15C C81U, the nonsense suppression is at most 0.026.
As for A14G A33G A54C C75U, the nonsense suppression was at most 0.026.
With U2G C3G A54U U76C, the nonsense suppression was at most 0.026.
The result for U8G G28C C81A reads at most 0.026.
Under G7U A9U U35A C75G C79A stands at most 0.026; under C81A, at most 0.026.
Under G6C G10U G26A G65C stands at most 0.026.
On to G7A U20C C82A G86A G88A A89C, for which the nonsense suppression is at most 0.026.
With G6A G26A G61C A87G, the nonsense suppression is at most 0.026.
Regarding U8G G61C A89G, the nonsense suppression is at most 0.026.
Under U17G C56G U63G G69A U76G stands at most 0.026.
Under G6A G61U G86U stands at most 0.026; under U4C C12G C64G G66C, at most 0.026.
Under U8A G28U stands at most 0.026.
Take C11G U20C A23G G61U: the nonsense suppression was at most 0.026.
Under C12U A31U U63C G65A stands at most 0.026.
Under C3A U70G U76C stands at most 0.026.
On to A13C U17C G69C G84A, for which the nonsense suppression was at most 0.026.
The result for A13C U63A A89G reads at most 0.026; that for C12A U70C, at most 0.026.
Under U21G U58A G85A stands at most 0.026; under G26C U71A A89C, at most 0.026; under C1G G10C A30G G32U, at most 0.026.
The result for G32A U71G reads at most 0.026; that for G6A C29G A62C C75U, at most 0.026.
On to G73C G84C, for which the nonsense suppression was at most 0.026.
With A14G C82A, the nonsense suppression was at most 0.026.
Under A31C C34G G66A stands at most 0.026; under A24C G28C U55C U70C U71C C75G, at most 0.026; under C1G U76C G88C, at most 0.026.
Under G15A A62U stands at most 0.026; under A9U C12G A60U C79A, at most 0.026; under G7C A24G A54C U57A, at most 0.026.
In the case of C29A A30C A62G, the nonsense suppression was at most 0.026.
Under A9G G15A A60C C64G stands at most 0.026.
Take C3G U21G G28C U63C C82A: the nonsense suppression was at most 0.026.
On to A54C U58G G65C G69U, for which the nonsense suppression was at most 0.026.
Under C3A G32A stands at most 0.026.
Under U8G G61U U71C stands at most 0.026; under G18A U76A, at most 0.026.
Under U2G U8A C12A A30G G59U G88C stands at most 0.026; under G32C C77A G85U, at most 0.026.
As for U2A A14C U57A G59A, the nonsense suppression was at most 0.026.
With G15U U22C G32A A89C, the nonsense suppression is at most 0.026.
With U2C A13C U21C C27G G32U U57C G88A, the nonsense suppression was at most 0.026.
In the case of A23G A24G C29U C64U G86C, the nonsense suppression is at most 0.026.
Under G7U C29U G86C stands at most 0.026; under U57G C82G, at most 0.026; under G65U G66U A74U, at most 0.026.
Under A23U G73C stands at most 0.026; under A23U G73A, at most 0.026.
The result for G7A C64A G66A C80U reads at most 0.026; that for G6C C56A, at most 0.026.
Turning to C3A G7U A23C U55C A62C, the nonsense suppression was at most 0.026.
Under G25A G66U stands at most 0.026; under G19U G28A C56G, at most 0.026; under C5U U22C U57C A74C, at most 0.026.
The result for G18U C34A G67C reads at most 0.026; that for G15C A87U, at most 0.026.
Turning to G10U A31C U57C, the nonsense suppression was at most 0.026.
Under G10U G26A stands at most 0.026.
The result for G67A C77G reads at most 0.026.
Under C12G A23G A54U stands at most 0.026; under G10A A31G U55G G61C, at most 0.026; under C11G A24C C83A, at most 0.026.
Turning to C12U C82U, the nonsense suppression was determined as 0.32.
As for C1U G19C A60G G66C, the nonsense suppression is at most 0.026.
Under G65C G66C stands at most 0.026; under C64G G66U U76G, at most 0.026; under G66A G88C, at most 0.026.
As to A14U U63C G66U G69C, the nonsense suppression was at most 0.026.
Under U4A G73U stands at most 0.026; under G7A U55C, at most 0.026.
Under U20C G65C U76C G85U stands at most 0.026; under G6A U58A G66C G73A, at most 0.026; under U8G A9U G61A, at most 0.026.
The result for G18U A33C reads at most 0.026.
For the variant G25A C80G, the nonsense suppression is at most 0.026.
Take G7U G18C A30G: the nonsense suppression is at most 0.026.
Under U35A C81A stands at most 0.026.
Under G59A G66U C83G stands at most 0.026; under G6A A24G, 0.0293; under C27A C64A U76A, at most 0.026.
The result for U57C C75G reads at most 0.026; that for C29A U58C, at most 0.026.
For the variant C29U A54C, the nonsense suppression was at most 0.026.
Consider C29U A54G, for which the nonsense suppression is at most 0.026.
Under G10C C27U C34A stands at most 0.026; under C56G C82A, at most 0.026.
The result for C1G G15C G59A G78U reads at most 0.026.
The result for C12A A14G G18U U35C G65A reads at most 0.026; that for U35G G59A G61U G88C, at most 0.026.
G19A A54G: the nonsense suppression is at most 0.026.
In the case of G6C A14G G18A, the nonsense suppression is at most 0.026.
Under G61C U63G C68G stands at most 0.026; under U8A C11A G15A U20A U21G, at most 0.026.
